# Measured values taken from PubChem BioAssay AID434955 (Southern Research Specialized Biocontainment Screening …, 2010).
# Some of the results follow. These are further read-outs of the screen, such as a control signal, another cell line or another target. No call is given for them. Most of these compounds were active or inconclusive in the main read-out, so they are no random draw.
# Assay: beta-lactam sensitization of Mtb H37Rv, H37Rv (AID 434955);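 note: growth measured after seven days incubation then overnight dye step; 0% = bacteria only wells and 100% = bacteria with antibiotic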
# Settings: M. tuberculosis H37Rv growth with meropenem, percent inhibition; measured here: primary screen without meropenem; at 25 µM
row,Compound,inhibition [%]
1,COc1ccc(OC)c(C2C(C(=O)c3ccco3)=C(O)C(=O)N2CCN2CCOCC2)c1 (stereo unspecified),1.66
2,CCCn1cc(CN2CCC(n3nccc3NC(=O)c3ccccc3)CC2)c(C)n1,-3.28
3,COc1ccc(/C=C2\SC(=S)N(CCC(=O)NCCCn3ccnc3)C2=O)cc1,-2.44
4,O=C(C1=C(O)C(=O)N(CCCn2ccnc2)C1c1ccc(F)cc1)c1ccco1 (stereo unspecified),-0.77
5,COc1cccc(-c2cccc(NC(=O)C3CCN(C4CCC4)CC3)c2)c1,-6.3
6,O=C(Nc1nc2ccc(F)cc2s1)c1cccc(S(=O)(=O)N2CCc3ccccc32)c1,62
7,Cc1cc(N2CCN(C(=O)c3ccco3)CC2)n2nc(-c3cccc(F)c3)cc2n1,0.82
8,COc1ccccc1N=c1oc2cc(O)ccc2cc1C(=O)NCC1CCCO1 (stereo unspecified),-3.85
9,COc1ccc(-c2cc(C(F)(F)F)c(C#N)c(SCC(=O)Nc3nc(C)co3)n2)cc1,1.86
10,CC(=O)c1cc(C(=O)N2CCCC(C(=O)c3ccc(Cl)cc3)C2)cs1 (stereo unspecified),2.84
11,CCc1nc(SCC(=O)Nc2ccccc2C)n[nH]1,3.57
12,Cc1nc(-c2ccc(F)cc2)c(CC(=O)N2CCN(S(=O)(=O)c3ccc(F)cc3)CC2)s1,4.34
13,COC(=O)CNC(c1ccccc1Cl)c1cc(Br)ccc1NC(=O)CCN1CCOCC1 (stereo unspecified),4.94
14,C/C(=N\NC(=O)c1ccc(OC2CCCC2)cc1)c1ccc(O)cc1,12.8
15,CCOc1cccc(-c2nnc(SCC(=O)NC3CC3)n2C)c1,0.21
16,NS(=O)(=O)c1cccc(NC(=O)CCSc2ccc(Cl)cc2)c1,-10.9
17,COc1ccc(-n2ncc3c(=O)n(CC(=O)N4CCCc5ccccc54)cnc32)cc1,-0.52
18,CCCOP(=O)(c1ccc(N(C)C)cc1)C(O)c1c(Cl)cccc1Cl (stereo unspecified),4.1
19,Nc1nc2n(n1)C(c1cccc(Br)c1)CC(c1ccc(F)cc1)N2 (stereo unspecified),1.63
20,CCC1CCCCN1CCCNC(=O)Cn1nc(C)n2nc(-c3ccccc3)cc2c1=O (stereo unspecified),1.58
21,CCc1ccc(C(=O)COC(=O)CNC(=O)Cc2ccccc2)cc1,1.7
22,CCOC(=O)c1sc(NC(=O)CSc2nc3c(cc2C#N)CCCCCC3)c(C#N)c1C,2.26

row,Compound,inhibition [%]
1,O=C(Nc1ccc2c(c1)CN(Cc1ccco1)CC2)C1CCCO1 (stereo unspecified),-4.48
2,CCc1ccc(N2CC34C=CC(O3)C(C(=O)OC)C4C2=O)cc1 (stereo unspecified),-2.53
3,COc1ccc(-c2csc(/C=C/c3ccc4c(c3)OCO4)n2)cc1OC,19.8
4,CCN(CC)C(=O)NC1CC2CCCC(C1)N2Cc1ccccc1 (stereo unspecified),5.3
5,CCN1C(=O)c2ccccc2S(=O)(=O)c2ccc(C(=O)NCCOC)cc21,9.48
6,COCCCNC(=O)Cn1c(=O)n(CC(=O)N2CCCCC2)c(=O)c2sccc21,-1.34
7,O=C(Nc1ccccc1)c1cc(S(=O)(=O)Nc2cccnc2)ccc1Cl,1.78
8,CCc1nc(NC(=O)c2sc(C)nc2C)sc1C(=O)OC,-6.65
9,O=C(C1=C[C@@H](c2ccc(Br)cc2)C[C@@H](OCc2ccc(CO)cc2)O1)N1CCN(Cc2ccc3c(c2)OCO3)CC1,32.4
10,COc1ccccc1CCn1cnc2c3cc(C)ccc3n(C)c2c1=O,6.55
11,O=C1NC(c2ccccc2)=C(c2nc3ccccc3s2)C(c2ccccc2)N1 (stereo unspecified),77.1
12,CC1Cc2ccccc2N1C(=O)C1CCCCN1S(=O)(=O)c1ccccc1 (stereo unspecified),8.84
13,O=C1CNC(=S)N1Cc1ccc(F)cc1,-1.34
14,CCOC(=O)c1[nH]c(C)c(C(=O)N2CCOCC2)c1C,-9.63
15,O=C(CSc1nnc(NC(=O)c2cccc(Cl)c2)s1)NCC1CCCO1 (stereo unspecified),7.83
16,COc1ccc(N2CCN(C(=O)COC(=O)c3ccco3)CC2)cc1,15.5
17,Cc1cnc(C(=O)OC(C)C(=O)Nc2ccc3c(c2)OCCO3)cn1 (stereo unspecified),3.62
18,Nc1nc2ccccc2n1C(=O)c1cccs1,10.2
19,COc1ccc(NC(=O)CSc2ccc3nnc(-c4ccccn4)n3n2)cc1,1.29
20,CCCCOC(=O)CSc1n[nH]c(=O)[nH]c1=O,-18.5
21,O=[N+]([O-])c1nn(-c2cccc(Cl)c2)n(O)c1=NCc1cccnc1,75.3
22,O=C(Cc1ccccc1)N/N=C/c1ccccc1Cl,1.5

row,Compound,inhibition [%]
1,COc1ccc2sc(-c3ccc(N(C)C)cc3)c(C#CC(C)(C)O)c2c1,-0.02
2,O=C(NC(=S)Nc1ccccc1F)C1CCCCC1,12.7
3,COc1ccc(-c2cc3ccc(OCc4nn[nH]n4)cc3oc2=O)cc1,-4.14
4,CCn1c(=N)n(CC(=O)c2ccc(Cl)c(Cl)c2)c2ccccc21,15.7
5,Cn1c(Cn2c(=O)sc3ccccc32)nnc1SCc1ccccc1,1.72
6,O=C(C[n+]1cc(Br)cc2ccccc21)c1ccc(Cl)cc1,-3.95
7,Cc1ccccc1N1CCN(C2CCCN(C(=O)c3ccnn3C)C2)CC1 (stereo unspecified),-9.39
8,CC1(C)Cc2c(sc(NC(=O)c3ccc(C(=O)c4ccccc4)cc3)c2C#N)C(C)(C)N1,2.99
9,C[N+]12CCC(CC1)C(C#N)(N1CCOCC1)C2 (stereo unspecified),6.11
10,Cc1ccc(Nc2c([N+](=O)[O-])c(=O)n(C)c3ccccc23)cc1C,-9.25
11,O=C(COC(=O)c1ccc(Cl)cc1[N+](=O)[O-])NNC(=O)c1cccs1,41.3
12,CN(CCCN1CCOCC1)C(=O)c1cc(COc2c(F)cccc2F)on1,0.91
13,COc1ccc(OCC(=O)NNC(=S)NC(=O)C2CCCCC2)cc1,10.9
14,CC1(C)Cc2cccc(OCC(=O)Nc3cccnc3)c2O1,5.39
15,Cc1cccc(/C=N/NC(=O)NC2CCCCC2)c1,-0.41
16,O=C(COc1ccc(Cl)cc1)OCC(=O)N1CCCCCC1,29.6
17,CC1=CC(=O)C(C(C)C)=C/C1=C(\c1cc(C(C)C)c(OP(=O)(O)O)cc1C)c1ccccc1C(=O)O,-6.11
18,CCc1c(C(=O)OC)nnc2cc(C)nn12,4.95
19,Cc1cc(SCc2ccc(Cl)cc2Cl)nc(=O)[nH]1,-4.33
20,CC1CCc2nn(CC(=O)NCCN3CCOCC3)cc2C1 (stereo unspecified),-1.13
21,Cc1ccc(NC(=O)CSc2nnc([C@@H]3CCCN3C(=O)OC(C)(C)C)o2)c(C)c1,11.1
22,Cn1c(=O)c(=O)n(C)c2cc(S(=O)(=O)N3CCCC3C(=O)Nc3ccc(F)cc3)ccc21 (stereo unspecified),-0.75

row,Compound,inhibition [%]
1,CCCCCCc1cc2cc(-c3nnc(-c4ccccc4O)o3)c(=O)oc2cc1O,12.1
2,O=C(NCC1COCCO1)c1cc(COc2ccc(F)cc2F)on1 (stereo unspecified),-0.79
3,CC(C)(C)[C@H]1C=C(C(=O)Nc2ccccc2)O[C@@H](OCc2ccc(CO)cc2)C1,56.8
4,COc1ccccc1/C=C1\C(=O)NC(=S)N(c2ccccc2)C1=O,0.83
5,CCc1ccc(NC(=O)C2CCN(S(=O)(=O)c3ccc4[nH]c(=O)ccc4c3)CC2)cc1,-6.41
6,O=c1c2cc(Cl)ccc2[nH]c(=S)n1Cc1ccco1,46
7,COc1ccccc1NC(=O)c1ccccc1S(=O)(=O)c1ccc([N+](=O)[O-])cc1,-1.5
8,COc1ccc(CNC(=O)c2sc3nc4c(c(C(F)(F)F)c3c2N)CCC4)cc1,0.35
9,Cc1ccccc1NC(=O)NCCCN1CCN(C)CC1,7.09
10,COc1cc(C2C(C(N)=O)=C(C)Nc3nc(CCCO)nn32)cc(OC)c1OC (stereo unspecified),-1.79
11,CC1CCN(S(=O)(=O)c2ccc(NC(=O)Cc3cccs3)cc2)CC1,-2.07
12,COc1cccc(C(=O)O/N=C(\N)Cc2ccc(Cl)cc2)c1,27.2
13,COCCn1c(=NC(=O)CCS(=O)(=O)c2ccccc2)sc2cc(F)ccc21,-2.84
14,Cc1cc(C(=O)CN2C(=O)NC(C)(CC(C)C)C2=O)c(C)n1-c1ccc2c(c1)OCO2 (stereo unspecified),-12.7
15,Cc1nc2c3ccccc3n(CC(=O)c3ccc(F)cc3)c(=O)n2n1,-2.1
16,O=C(CN1CCC(n2nnc3cc(F)ccc32)CC1)NC1CCCCC1,-7.38
17,COc1ccc2ccccc2c1/C=N/NC(=O)c1cccc(Br)c1,20.8
18,Cc1cc2c(c(=O)o1)C(C1C=CCCC1)C(C#N)=C(N)O2 (stereo unspecified),3.39
19,Oc1ccc(/C=N/n2c(COc3ccccc3)n[nH]c2=S)cc1O,-0.18
20,CN1C[C@H](CO)C[C@@H]2c3cccc4[nH]cc(c34)C[C@H]21,0.62
21,COc1ccc(CNC(=O)c2nnn(Cc3ccc(OC)cc3)c2N)cc1,-5.53
22,O=C(NCc1ccc(Cl)cc1)C1CCC(=O)N(C2CCCCCC2)C1 (stereo unspecified),-5.45

row,Compound,inhibition [%]
1,CCc1nnc(NC(=O)CSc2nnc(CSc3nc(C)cc(C)n3)n2C)s1,-1.99
2,Cc1noc(C)c1S(=O)(=O)N1CCCC1C(=O)NC(C)(C)C (stereo unspecified),-6.41
3,Cn1c(=O)cc(OCC(=O)N2CCN(C3CCCCC3)CC2)c2ccccc21,-5.91
4,C/C(=N\NC(=S)NCc1ccccc1)c1cccc(Br)c1,15.1
5,O=C(N/N=C/c1c(Cl)cccc1Cl)c1cccc(F)c1,19.8
6,O=C(COC(=O)/C=C/c1ccc(C(F)(F)F)cc1)NCCC1=CCCCC1,22.9
7,CC1CCN(c2ccc(-c3ccc(NC(=O)C(F)(F)F)cc3)nn2)CC1,-1.23
8,O=C(COC(=O)c1ccccc1Br)NCCc1ccc(F)cc1,6.21
9,c1ccc(-n2nnc3c(N4CCOCC4)ncnc32)cc1,-5.01
10,COc1cccc(OCC(=O)Nc2c3c(nn2-c2ccccc2)CS(=O)(=O)C3)c1,4.27
11,CC(C)(C)c1ccc(-n2ncc3c2CCCC3NC(=O)CCN2CCCCC2=O)cc1 (stereo unspecified),6.29
12,COc1cccc(/C=N/n2c(COc3ccccc3)n[nH]c2=S)c1,0.11
13,O=C(COc1ccccc1)Nc1nc2cc3c(cc2s1)OCO3,-0.48
14,CCCCN(CCCNC(=O)Cn1nc(CC)n2c(cc3sc(C)cc32)c1=O)Cc1ccccc1,53
15,NC(=O)C1CCN(c2oc(-c3ccccc3)nc2S(=O)(=O)c2ccc(Br)cc2)CC1,12.7
16,CC1CCc2c(sc(NC(=O)CCCn3cnc([N+](=O)[O-])n3)c2C(N)=O)C1 (stereo unspecified),45.2
17,COc1cc(/C(C)=N\NC(N)=S)cc(OC)c1OC,51.6
18,COc1ccc(C(=O)N/C(=C\c2cccs2)c2nc3ccccc3[nH]2)cc1OC,-0.97
